About 64,000 (15%) of roughly 420,000 compounds were called active. The shares of active, inactive and inconclusive entries below differ from those in the screen. Calls come from the whole dose curve; as a rule, active = well fitted inhibition curve with a large enough effect; inconclusive = small, poorly fitted or top-dose-only effect; inactive = flat fitted curve, though single readings scatter. Potencies of inconclusive entries are left out as doubtful fits.
Assay: qHTS for Inhibitors of human tyrosyl-DNA phosphodiesterase 1 (TDP1): qHTS in cells in absence of CPT; note: nearly all actives have a fitted effect of over 55% in size
Conditions: DT40 Tdp1-/- hTDP1 cells, no CPT, ATP luminescence, 48 h; series mostly up to 46.2 µM
Procedure, shortened: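 Chicken DT40 Tdp1-/- cells stably complemented with human TDP1 were seeded at 400 cells/well with DMSO in place of 20 nM camptothecin. After compound pinning, cells grew at least 48 hr at 37 °C; viability read by CellTiter-Glo luminescence.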
Potency is the fitted concentration of half-maximal effect; tags give direction and shape of the fitted curve.

Row | SMILES | Potency
1 | O=C(N/N=C/c1ccc([N+](=O)[O-])cc1)c1ccccc1OCc1ccccc1 | inconclusive [inhibitor, single point]
2 | CC1ON=C(c2ccc(F)cc2)NC1=O (configuration not stated) | inactive
3 | COc1ccc(CNc2ccc(Br)cc2)cc1 | inactive
4 | C/C(=N/Nc1nc(-c2ccccc2)cc(-c2ccc(F)cc2)n1)c1cccc(N)c1 | inconclusive [inhibitor, single point]
5 | CCN(CC)S(=O)(=O)c1ccc(Cl)c(C(=O)Oc2cccc(-c3cnc4ccccc4n3)c2)c1 | inconclusive [inhibitor, single point]
6 | OC(c1ccc2ccccc2n1)c1c(Cl)cccc1Cl (configuration not stated) | inconclusive [inhibitor, single point]
7 | N#CC1=C(N)NC(SCc2ccc(F)cc2)=C(C#N)C12CCCCC2 | active: 25.9 µM
8 | Cc1ccc(NC(=O)OCCN2CCN(Cc3ccccc3)CCC2=O)cc1C | inconclusive [inhibitor, single point]
9 | Cc1cccc(NC(=O)Cn2c(=O)n(CCCCCC(=O)NCc3ccc4c(c3)OCO4)c(=O)c3sccc32)c1 | inconclusive [inhibitor, partial curve]
10 | COC(=O)c1ccn(Cc2ccccc2Cl)n1 | inactive
11 | COC(=O)c1scc(-c2ccc(C)cc2)c1S(=O)(=O)Nc1cc(C)ccc1OC | active: 23.1 µM
12 | Cc1cccc(Oc2cnn(C(C)(C)C)c(=O)c2Cl)c1 | inconclusive [inhibitor, single point]
13 | COc1cc(/C=C(\NC(C)=O)C(=O)N2CCCCC2)ccc1OC(C)=O | inactive
14 | CSC[C@H]1CN(Cc2ccccc2)C(=O)[C@@H]1CC(=O)Nc1ccccc1 | inconclusive [inhibitor, single point]
15 | CC(C)(O)CCC(C)(C)O | inactive
16 | Cc1ccc(CCC(=O)Nc2ncc(Cc3cc(Cl)ccc3Cl)s2)o1 | active: 0.58 µM
17 | N=c1c2c(ncn1CCCO)Oc1ccc3ccccc3c1C2c1ccccc1 (configuration not stated) | inconclusive [inhibitor, single point]
18 | O=C(CSc1nnc(-c2ccccc2)n1-c1ccccc1)c1ccc[nH]1 | inconclusive [inhibitor, single point]
19 | Cc1ccc2occ(C(c3nnnn3C3CCCC3)N3CCN(C(=O)c4ccco4)CC3)c(=O)c2c1 (configuration not stated) | inconclusive [inhibitor, partial curve]
20 | COc1ccccc1C(=O)Nc1sc(Nc2ccccc2)nc1C(N)=O | active: 6.51 µM
21 | O=C(C1CCCN1S(=O)(=O)c1ccc(Cl)cc1)N1CCOCC1 (configuration not stated) | inactive
22 | COc1cc(OC)c2ccc(=O)oc2c1C(CCN1CCCC(C)C1)c1ccc(N(C)C)cc1 (configuration not stated) | inconclusive [inhibitor, partial curve]
23 | COc1ccc(NC(=O)NC(C)(C(F)(F)F)C(F)(F)F)cc1 | active: 16.4 µM
24 | CC1(C)CC(=O)C=C(c2ccc(COC(=O)c3ccccc3)cc2)C1=O | inconclusive [inhibitor, single point]

Row | SMILES | Potency
25 | COc1ccccc1NC(=O)c1cc2ccccc2o/c1=N\O | active: 20.6 µM
26 | Cc1ccc(C(=O)CSc2nc(C)cc(C)c2C(N)=O)cc1 | inconclusive [inhibitor, partial curve]
27 | Cc1cc(C)c2c(NC(=O)c3ccccc3)c(C(=O)Nc3ccc(F)cc3)sc2n1 | inconclusive [inhibitor, single point]
28 | Cc1ccc(C)c(N2CCN(CCCNC(=O)c3ccc4nc(CCc5ccccc5)oc4c3)CC2)c1 | active: 4.11 µM
29 | CN(C(=S)NC(=O)/C=C/c1ccc(F)cc1)C1CCCCC1 | inactive
30 | COc1ccc(CCNc2ncnc3sccc23)cc1OC | active: 0.291 µM
31 | O=C(COC(=O)c1ccccc1Cl)NCc1ccco1 | inactive
32 | Cc1cc(C)nc(N/N=C/c2ccccc2OCc2ccc([N+](=O)[O-])cc2)n1 | inconclusive [inhibitor, single point]
33 | O=C(NCc1ccccc1Cl)c1cccc(OC2CCN(C(=O)C3CC3)CC2)c1 | inconclusive [inhibitor, single point]
34 | Cc1ccc(S(=O)(=O)N2CCOCC2)cc1C(=O)NCc1cccnc1 | inactive
35 | C[C@@H]1CN(Cc2ccc3c(c2)CN(Cc2coc4ccccc4c2=O)CCO3)C[C@H](C)O1 | inconclusive [inhibitor, single point]
36 | O=C1C=C(c2cccc(CO)c2)C[C@@H](c2ccc(Cl)cc2)C1 | inconclusive [inhibitor, single point]
37 | Cc1cc(SCC(=O)NC(=O)NCc2ccco2)nc2c(C)cccc12 | active: 29.1 µM
38 | Cc1ccc(CNC(=O)CCCC(=O)Nc2cc(C)on2)cc1 | inconclusive [inhibitor, single point]
39 | CCN1C(=NCCc2c[nH]c3ccccc23)N[C@@H](c2ccccc2)[C@H](C(=O)OC)[C@H]1C | active: 18.4 µM
40 | COc1ccc(C2CC(c3ccccc3)=NN2C(=O)c2ccc(Cl)c([N+](=O)[O-])c2)cc1 (configuration not stated) | inconclusive [inhibitor, single point]
41 | COc1ccc(-c2nn3c(-c4ccccc4)nnc3s2)cc1 | inconclusive [inhibitor, single point]
42 | CSCCC(NS(=O)(=O)c1ccc(Cl)cc1)C(=O)OCc1cccc(Cl)c1 (configuration not stated) | inconclusive [inhibitor, single point]
43 | CCOC(=O)c1nnc2cc(C)nn2c1C | inactive
44 | CC(NC(=O)C(=O)N1CCCCC1)C(c1cccs1)N1CCN(c2ccccc2F)CC1 (configuration not stated) | inconclusive [inhibitor, single point]
45 | Cc1ccc(C(=O)N/C(=C\c2ccc(Cl)cc2)C(=O)NC2CCCCC2)cc1 | active: 18.4 µM
46 | Cc1ccc(C(CC(=O)NCCCN(C)C)c2ccc(OC(C)C)cc2)cc1 (configuration not stated) | inconclusive [inhibitor, single point]
47 | Fc1ccc(-n2nnc(-c3ccccc3)n2)cc1 | inactive

Reference: PubChem BioAssay AID686978 (National Center for Advancing Translational Sciences (NCATS), 2013)
